Assay results as given in publication PMC4336329 (PLoS ONE, 2015).
Among all 310,000 compounds or so, about 14,000 (4.5%) showed an effect of 50% or more. The effect is printed as a negative number. Some of the results follow.

What follows are molecules tested against human ether-à-go-go-related gene (hERG) potassium channel (human, UniProt Q12809) (assay: primary screen, population patch clamp on CHO cells stably expressing hERG).
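Note: peak tail current of the secondary pulse compared with the same well before compound.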

Chain of human ether-à-go-go-related gene (hERG) potassium channel (Q12809 whole entry, looked up): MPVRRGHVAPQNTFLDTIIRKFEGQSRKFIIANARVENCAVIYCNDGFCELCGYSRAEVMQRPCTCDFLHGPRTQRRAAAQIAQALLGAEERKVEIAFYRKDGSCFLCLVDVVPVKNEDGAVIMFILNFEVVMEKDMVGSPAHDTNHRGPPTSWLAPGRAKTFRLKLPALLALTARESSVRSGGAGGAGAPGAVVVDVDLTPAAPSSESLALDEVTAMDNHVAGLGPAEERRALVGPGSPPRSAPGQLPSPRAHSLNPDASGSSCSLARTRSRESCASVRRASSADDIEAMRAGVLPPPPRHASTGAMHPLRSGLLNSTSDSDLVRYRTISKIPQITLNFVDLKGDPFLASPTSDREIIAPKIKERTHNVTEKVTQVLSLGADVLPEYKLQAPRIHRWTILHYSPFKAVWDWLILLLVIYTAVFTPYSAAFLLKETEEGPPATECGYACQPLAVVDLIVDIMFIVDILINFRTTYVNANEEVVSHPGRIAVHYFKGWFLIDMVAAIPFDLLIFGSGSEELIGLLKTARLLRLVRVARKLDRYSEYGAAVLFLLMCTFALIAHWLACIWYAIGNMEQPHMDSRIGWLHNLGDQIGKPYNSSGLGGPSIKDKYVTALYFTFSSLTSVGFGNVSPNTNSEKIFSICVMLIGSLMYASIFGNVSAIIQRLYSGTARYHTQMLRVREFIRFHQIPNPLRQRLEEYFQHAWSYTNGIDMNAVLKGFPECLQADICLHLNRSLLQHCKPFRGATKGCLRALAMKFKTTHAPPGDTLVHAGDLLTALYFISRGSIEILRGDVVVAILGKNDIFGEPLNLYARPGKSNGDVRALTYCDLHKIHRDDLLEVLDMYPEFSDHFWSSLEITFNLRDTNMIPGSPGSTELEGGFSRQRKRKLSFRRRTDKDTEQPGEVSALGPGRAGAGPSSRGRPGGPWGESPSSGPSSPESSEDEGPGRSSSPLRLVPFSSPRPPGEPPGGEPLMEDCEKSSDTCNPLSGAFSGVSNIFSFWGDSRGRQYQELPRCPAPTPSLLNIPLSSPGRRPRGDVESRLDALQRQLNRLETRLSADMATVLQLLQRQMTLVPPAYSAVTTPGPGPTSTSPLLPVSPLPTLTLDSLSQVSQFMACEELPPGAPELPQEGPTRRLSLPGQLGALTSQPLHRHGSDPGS

| SMILES | hERG current change (%, negative = inhibition) at 10uM |
| --- | --- |
| CCN(CC)CCCN1C(=O)c2oc3ccccc3c(=O)c2C1c1cccs1 (stereo not drawn) | 6.51% |
| COc1cc(/C=C2/C(=O)NN(c3ccccc3)C2=O)cc(Br)c1O | 13% |
| CCCn1c(Sc2nnnn2-c2ccccc2)n[nH]c1=O | 6.32% |
| Cc1ccc(/C=C/C(=O)O)cc1S(=O)(=O)N(CCO)CCO | 8.09% |
| O=S(=O)(NC1CC2CCC1C2)c1ccc(Cl)cc1 (stereo not drawn) | 12.8% |
| Cc1ccc(N2N=C(c3ccc(Br)cc3)CCC2=O)cc1 | 13.8% |
| CN(C(=O)COC(=O)C1CCN(S(=O)(=O)c2c(Cl)cccc2Cl)CC1)C1CCS(=O)(=O)C1 (stereo not drawn) | -37.8% |
| COc1cccc(-n2cnc3sc(C)cc3c2=O)c1 | -1.36% |
| COC(=O)c1cc2oc3ccccc3c2n1CC(=O)Nc1ccccc1OC | -3.85% |
| COc1ccc(/C=N/NC(=S)Nc2ccccc2)cc1COc1ccc(F)cc1F | 3.62% |
| O=C1c2ccccc2NC(c2ccccc2)N1Cc1ccco1 (stereo not drawn) | -27.6% |
| Cc1ccccc1-c1nc(-c2ccc(Br)o2)no1 | 3.44% |
| Cc1c(NC(=O)COC(=O)C2(c3ccc(F)cc3)CCCC2)c(=O)n(-c2ccccc2)n1C | -2.07% |
| O=C(O)CCc1ccc(-c2ccc(Cl)cc2)n1CC(=O)Nc1ccccc1 | 13.1% |
| O=C(COC(=O)c1ccc(Br)o1)Nc1ncc([N+](=O)[O-])s1 | 10.6% |
| O=C(Nc1ccc(F)cc1)Nc1nnc(-c2ccncc2)s1 | 3.57% |
| O=C(CSc1nc2nc(-c3cccs3)cc(C(F)(F)F)c2c(=O)[nH]1)NCc1ccco1 | -0.232% |
| CCOC(=O)CN(C(=O)Cn1nnc(-c2ccc(C)cc2)n1)C(CC)C(=O)NC1CCCC1 (stereo not drawn) | -8.67% |
| CC(Sc1nc(N)c(NC(=O)c2ccc(Br)o2)c(=O)[nH]1)C(=O)O (stereo not drawn) | -15.1% |

| SMILES | hERG current change (%, negative = inhibition) at 10uM |
| --- | --- |
| Cc1ccccc1N1C(=O)C(Oc2ccc(Cl)cc2)C1CNCCCOC(C)C (stereo not drawn) | -53.4% |
| Cc1cc(=O)[nH]c2c1c(C)nn2C1CCCCC1 | -3.84% |
| O=C(CCN1C(=O)/C(=C\c2ccccc2)SC1=S)NCCCN1CCOCC1 | -15% |
| COc1ccc2c(c1)C1NC(=S)NC(C)(O2)C1C(=O)Nc1ccccc1C (stereo not drawn) | -16.9% |
| CCC(CO)N=CC1=C(O)CC(c2ccccc2)CC1=O (stereo not drawn) | 17.1% |
| Cc1c(N2C(=O)C3C4C=CC(C4)C3C2=O)c(=O)n(-c2ccccc2)n1C (stereo not drawn) | 12.5% |
| CCc1nnc(NC(=O)c2ccc(COc3ccccc3C)o2)s1 | 13.8% |
| Cl.Nc1nonc1C(=O)NCCNCc1c(OCc2ccccc2F)ccc2ccccc12 | -11.9% |
| Cc1cccc(C)c1OCCNC(=O)c1ccc2ccccc2n1 | 5.09% |
| O=C(COc1coc(CN2CCc3ccccc32)cc1=O)NCCc1ccccc1 | 1.23% |
| Cc1cc(C(=O)CSc2nnnn2-c2ccc(O)cc2)c(C)n1C | 4.74% |
| Cc1ccc(C)c(S(=O)(=O)Nc2ccc(C(=O)N3CCC3)cc2)c1 | 1.64% |
| Cc1cc(OCC(=O)NCCN2CCOCC2)c2c(C)c(C)c(=O)oc2c1 | 8.1% |
| CC1Cc2ccccc2N1C(=O)CO/N=C/c1ccc(OC(F)F)cc1 (stereo not drawn) | -38.3% |
| CCOC(=O)C1CCN(C(=O)CSc2ccc(Br)cc2)CC1 | -36% |
| COc1ccc(-c2ccnc(SCC(=O)c3ccc(Br)cc3)n2)cc1 | 4.26% |
| CCOC(=O)c1cn(CC(=O)Nc2ccc(C)cc2)nn1 | -1.09% |
| Cc1ccc(S(=O)(=O)Nc2nc3ccccc3nc2N2CCN(c3ccccc3F)CC2)cc1 | -2.44% |
| Cc1cc(C(=O)NNc2c(Cl)cccc2Cl)n(C(C)(C)C)n1 | 17% |

| SMILES | hERG current change (%, negative = inhibition) at 10uM |
| --- | --- |
| CCCn1nnnc1SCC(=O)Nc1cccc(NC(=O)c2ccco2)c1 | -34.8% |
| Cc1cc(Cn2nc(-c3ccccc3)cc2C(=O)NCc2cccc(C(F)(F)F)c2)on1 | 10.8% |
| CC(=O)CCS(=O)(=O)c1ccc(C)c(C)c1 | 1.19% |
| Cc1cccc(/C(N)=N/OC(=O)c2cccc3ccccc23)c1 | 6.68% |
| O=C(NCC(c1ccco1)N1CCCCC1)c1ccc(OCc2ccccc2)cc1 (stereo not drawn) | -44.7% |
| CCN(CC)c1nc(N2CCOCC2)nc2ccccc12.Cl | -48.3% |
| COc1ccccc1CN1CCNC(=O)C1CC(=O)NCC1CCOCC1 (stereo not drawn) | -4.72% |
| Cc1cc2c(cc1C)/C(=N/NC(=O)c1ccccn1)CCC2 | -34.4% |
| Cc1cc(C(F)(F)F)nc(SCC(=O)c2cccc([N+](=O)[O-])c2)n1 | -20.1% |
| O=C(N/N=C/c1c(O)n(-c2ccc(Cl)cn2)c(=O)c2ccccc12)C1CC1 | -4.78% |
| COc1ccc(CCn2c(C)ccc2C)cc1OC | 7.84% |
| COc1ccccc1NS(=O)(=O)c1cccc(C(=O)NCC(c2ccco2)N2CCCC2)c1 (stereo not drawn) | -22.8% |
| Cc1cc(=O)oc2c3c(cc(OCC(=O)Nc4cccnc4)c12)OC(C)(C)CC3 | 12.8% |
| Cc1ccc(NC(=O)CC2SC(=NCC3CCCO3)NC2=O)cc1Cl (stereo not drawn) | -3.57% |
| Cc1cc(=O)n2[nH]c(CCC(=O)O)nc2n1 | 13.8% |
| Cc1cc(C)c2c(N)c(C(=O)Nc3ccccc3F)sc2n1 | 12.4% |
| CC1=C(C(=O)OC2CCCCCCC2)C(c2ccc(O)cc2)NC(=O)N1 (stereo not drawn) | -17.3% |
| COc1ccc(C(=O)C2CCCN(C3Cc4ccccc4C3)C2)cc1OC (stereo not drawn) | -76.6% |
| CCCc1nc2oc3c(NCC4CCCO4)ncnc3c2c2c1COC(C)(C)C2 (stereo not drawn) | -42.3% |
